Data taken from PubChem BioAssay AID1362 (SRMLSC, 2008).
Some of the results follow. The main result of the screen is listed elsewhere. These columns were measured beside it and carry no call. Most of these compounds were active or inconclusive in the main read-out, so they are no random draw.

Assay: growth inhibition of WT strain, primary screen, mitochondrial fusion inhibitor project, WT and mutant strains, chemical genetic (AID 1362); note: tested in S. cerevisiae
Conditions: mitochondrial fusion phenotypic screen, at 10 µM

| Structure (SMILES) | inhibition [%] |
| --- | --- |
| O=C(Nc1cccc(C(F)(F)F)c1)c1cccnc1NCCc1ccccc1 | 64.3 |
| CC(C)N=c1scc(-c2cccs2)n1/N=C/c1ccc(O)c(O)c1O | 29.2 |
| O=C(Nc1ccc(Cl)cn1)C1C(c2ccccc2)C1(Cl)Cl (centres undefined) | 51.8 |
| COc1ccc(C2c3c(ncn(Cc4ccco4)c3=N)Oc3ccc4ccccc4c32)cc1 (centres undefined) | 4.07 |
| Cc1ccccc1-c1nnc(SCc2ccc(F)cc2)o1 | 32.6 |
| Cc1ccc(C)c(NC(=O)c2ccccc2NS(=O)(=O)c2cc([N+](=O)[O-])ccc2C)c1 | 53.5 |
| O=C(OCc1nnc(-c2ccccc2)o1)C12CC3CC(CC(Br)(C3)C1)C2 | 13.7 |
| COc1ccc(C2=Nc3cccc4cccc(c34)N2)cc1 | -4.93 |
| CC1(c2ccccc2)CC(C)(C)N2C(=O)/C(=C3\SC(=S)NC3=O)c3cccc1c32 (centres undefined) | 24.8 |
| COc1ccc(C(=O)Nc2ccc(Cl)cc2C(=O)NCCN2CCOCC2)cc1 | 11.8 |
| CC(C)(C)NC(=O)C(c1ccco1)N(C(=O)Cn1nnc(-c2ccc(F)cc2)n1)c1ccccc1F (centres undefined) | 36.5 |
| CCOc1ccccc1OCCCOc1ccc(C)cc1Br | 39.4 |
| CN(C)CCCN1c2ccccc2CCc2ccc(Cl)cc21 | 38 |
| CCOC(=O)c1sc(NC(=O)CSc2n[nH]c(-c3ccc(Cl)cc3Cl)n2)c(C#N)c1C | 38.8 |
| Cc1ccc(C(=O)/C=C/c2cn(CN3CCN(C)CC3)c3ccccc23)cc1 | 78.2 |
| COCCN1Cc2cccc(C(=O)NC3CCCCCC3)c2C1=O | 60.8 |
| Brc1ccc(/C=N/Nc2ccc3ccccc3n2)cc1 | 32.7 |
| Fc1ccc(NC(=S)Nc2ccccc2N2CCOCC2)cc1Cl | 43 |
| CS(=O)(=O)N(CC(=O)NCc1ccc2c(c1)OCO2)c1ccc(Cl)cc1 | 29.1 |
| CC1CCN(C(=O)/C=C/c2ccc(C(C)(C)C)cc2)CC1 | -12.7 |
| O=C(Nc1ccc(Cl)c(Cl)c1)OCc1cccnc1 | 78.7 |
| O=C(Nc1ccccc1)Nc1ccc(C(=O)N2CCCC2)cc1 | 61.6 |
| C=CCNCCCOc1ccc(Cl)cc1C(C)(C)C | 73.2 |
| CCc1ccc(NC(=S)Nc2cccc3cnccc23)cc1 | 54.5 |
| CC(/C=C1\SC(=S)N(NC(=O)c2cccc(O)c2)C1=O)=C\c1ccccc1 | 82.3 |
| C=CCCCCCCCCc1nc(=S)[nH][nH]1 | 48.2 |
| COc1cccc(CC2(CO)CCCN(Cc3[nH]c4ccc(C)cc4c3C)C2)c1 (centres undefined) | 64 |

| Structure (SMILES) | inhibition [%] |
| --- | --- |
| CC1(C)C=Cc2c(c3c(c4c(=O)c(-c5ccc(O)cc5)coc24)OC(C)(C)CC3)O1 | 34.4 |
| CCn1cc(C(=O)OCC(=O)OC2CC(C)CCC2C(C)C)c(=O)c2ccc(C)nc21 (centres undefined) | 27.5 |
| Clc1ccc(OCCSCc2nc3ccccc3[nH]2)cc1 | 70.7 |
| Cc1cccc(Nc2nc(-c3cccs3)cs2)n1 | 45.5 |
| O=C(OC1CCN(c2ncc(C(F)(F)F)cc2Cl)CC1)c1ccccc1 | 34 |
| CN(C)c1ccc(O)c2c1CC1CC3[C@@H](N(C)C)C(=O)C(C(N)=O)=C(O)[C@]3(O)C(=O)C1=C2O (some centres undefined) | 6.78 |
| CC(Cl)C(=O)NNc1cccc(Cl)n1 (centres undefined) | -0.4 |
| COc1cccc(NC(=O)CSc2nc3c(c(-c4ccco4)c2C#N)CCCC3)c1 | 75.2 |
| S=C(NC1CCCCC1)N(CCc1ccccc1)CCc1ccccc1 | 3.44 |
| COc1ccc(C(=O)O/N=C(\C)c2ccccc2)cc1 | 71.2 |
| Cc1ccc(-c2nc3cc(NS(=O)(=O)c4ccc(C)cc4)ccc3o2)cc1 | 49.2 |
| COc1ccc(-c2csc3nc(C)nc(N4CCC(C)CC4)c23)cc1OC | 18.8 |
| COc1ccc(C(=O)N(Cc2nc(-c3ccc(C)cc3)no2)C2CCCCC2)cc1OC | 2.75 |
| Cc1ccccc1Nc1scc(-c2ccc(Cl)cc2)[n+]1-c1ccccc1C | 7.22 |
| CCCc1nn(C)c(C(=O)Nc2ccc(C(C)(C)C)cc2)c1Cl | 18.7 |
| COCCN(C(=S)Nc1cc(C)cc(C)c1)C(C)c1ccco1 (centres undefined) | 30.1 |
| CCCCOc1c(Br)cc(/C=N/O)cc1OCC | 13.8 |
| Cc1nn(-c2ccccc2)c(N)c1N=Nc1ccc(Cl)cc1 | 79.3 |
| CCc1ccc(C(=O)/C=C/c2ccc([N+](=O)[O-])o2)cc1 | 41.1 |
| Cc1cccn2c(=O)c(C=NCc3ccco3)c(Nc3ccc(SC(F)F)cc3)nc12 | 2.26 |
| Cc1cc(Nc2ccccc2)c2c([N+](=O)[O-])cc(C)c(C)c2n1 | 4.1 |
| Cc1ccc(-c2nn(-c3ccccc3)cc2CSC(=N)N)cc1 | -0.33 |
| CCOC(=O)C1CCN(C(=O)Cc2ccc(OC)c(OC)c2)CC1 | 1.18 |
| O=[N+]([O-])c1ccc(NC(=S)NCCc2ccccc2)cc1 | 73.8 |
| O=C(Nc1ccc2snnc2c1)Nc1cccc2ccccc12 | 70.2 |
| O=C(Oc1ccc2cc(Br)ccc2c1)N1CCCCCC1 | 19.4 |
| Cc1cc(Oc2ccc(C(C)(C)C)cc2)nc(N2CCOCC2)n1 | 16.8 |
